# The list shows a part of the results.
# Test system: T1, Caupolican (Caup) homeodomain DNA-binding domain
# T1 sequence: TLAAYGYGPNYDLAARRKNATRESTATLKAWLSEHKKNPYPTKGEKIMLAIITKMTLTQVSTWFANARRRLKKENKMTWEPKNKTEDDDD
# Test: PBM E-score (8-mer, recovered from the published 9-mer minima) (E-score (dimensionless, -0.5 to 0.5)); Drosophila protein; higher = stronger relative binding preference, active = 0.31 or more
# Experimental: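 Protein binding microarray (PBM): in vitro transcribed/translated Caupolican (Caup) homeodomain DNA-binding domain (residues 214-303) applied at 100 nM to a universal 8-mer PBM array (Agilent AMADID 015681). The 8-mer enrichment score (E-score, range -0.5 to 0.5) was computed, and each 9-mer score is the minimum E-score of its two constituent 8-mers. The E-score is the same for a 9-mer and its reverse complement; 0.31 is the stated binding threshold.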
row,Sequence,PBM E-score
1,GACCATAA,inactive: -0.00449
2,CGCGTACA,inactive: 0.168
3,AGTGCGTC,inactive: -0.109
4,CGGTCGGA,inactive: -0.0659
5,ACAATATC,inactive: 0.198
6,CTATGGTA,inactive: 0.0305
7,AACCACGC,inactive: 0.0198
8,ACAGTTAC,inactive: 0.224
9,ATGCGTGA,inactive: 0.0972
10,ATGCTGTC,inactive: 0.17
11,AACCAAGC,inactive: -0.0326
12,CCGCCGGA,inactive: -0.175
13,GCTCACGA,inactive: -0.108
14,GATTGTCC,inactive: 0.114
15,AAACCATT,inactive: 0.0332
16,GTAATGAA,inactive: 0.127
17,CATTACTC,inactive: 0.131
18,AGGAGCAG,inactive: -0.216
19,ACCATGTA,active: ≥ 0.422
20,ATTCCGTA,inactive: 0.0304
21,ATCACCGG,inactive: -0.0415
22,ATTTGGTG,inactive: 0.121
23,CTCGCCAA,inactive: -0.134
24,GCTTAAAC,inactive: 0.0137

row,Sequence,PBM E-score
1,CCGCATAG,inactive: -0.0554
2,GAGAACGC,inactive: -0.0756
3,CCTGAGTC,inactive: -0.149
4,ATGTGCCC,inactive: 0.0731
5,ACACATGG,inactive: 0.167
6,CCCCCTCC,inactive: -0.387
7,CTAAGGAA,inactive: 0.00378
8,GTGAGGCA,inactive: -0.0692
9,CGCGTGCC,inactive: -0.227
10,CAGAAGAC,inactive: 0.0298
11,AGGTCCAG,≥ 0.0427
12,TAGCCCCA,inactive: -0.192
13,ACCATATG,inactive: 0.145
14,CTGCTCGA,inactive: -0.131
15,AAACTCGA,inactive: 0.0205
16,GCGTTTAC,inactive: -0.0438
17,CGCCGTAA,inactive: -0.0926
18,CTTTGCTA,inactive: -0.00094
19,GGAGAAGA,inactive: -0.179
20,AAGTCCCT,inactive: -0.132
21,AAGGCCTT,≥ -0.109
22,CTTGTTAC,active: 0.365
23,ATGGTTAA,inactive: 0.0478
24,GCATCCAA,inactive: -0.0399

row,Sequence,PBM E-score
1,ATGCGACC,inactive: -0.0826
2,CGACTACC,inactive: -0.0888
3,ATTGGAGG,inactive: -0.0827
4,CCGTCTCA,inactive: -0.104
5,GCGCGTCA,inactive: -0.105
6,ACTAGCTC,inactive: 0.0549
7,CATGAAGG,inactive: 0.0126
8,AATTTATA,inactive: 0.192
9,AGCAAGTG,inactive: 0.0491
10,CATTCGGG,inactive: -0.00581
11,CAATACGG,inactive: -0.0365
12,CCGTCGCA,inactive: -0.118
13,GCGTGGTA,inactive: -0.00155
14,ACGAGGAA,≥ 0.0777
15,ACGCGACT,inactive: 0.0019
16,GAATAAAC,inactive: 0.174
17,AGCGTCCC,inactive: -0.13
18,ATGCCAAT,inactive: 0.055
19,GTAGGGGA,inactive: -0.0766
20,ATCACCTC,inactive: 0.0348
21,ATCGATAG,inactive: 0.148
22,GTTTACCA,inactive: 0.063
23,CATCTTAG,inactive: 0.0142
24,ACGCGACA,inactive: 0.139

row,Sequence,PBM E-score
1,GCACTTTA,inactive: 0.085
2,ATCTCGGG,inactive: -0.119
3,GCAGACCA,inactive: -0.114
4,ACTCCTGC,inactive: -0.0374
5,AAGCAGAG,inactive: -0.0305
6,GCCGGTCC,inactive: -0.258
7,GCAGAGAA,inactive: -0.117
8,AATGGAAA,inactive: 0.045
9,CCGGGGAA,inactive: -0.227
10,CGCGAGCC,inactive: -0.254
11,CGGCTCAC,inactive: -0.135
12,GTCTCAAC,inactive: -0.00687
13,AGTCCGAT,inactive: 0.001
14,AATCACAA,inactive: 0.19
15,AAGGGCAT,inactive: -0.0465
16,ATTGAGAG,inactive: -0.0513
17,AAAGGATA,inactive: 0.105
18,AGCGGTAC,inactive: 0.0546
19,GATTATAA,inactive: 0.0984
20,ACTGGTCA,inactive: 0.014
21,CAGGCTTC,inactive: -0.123
22,AATTAGTC,inactive: 0.151
23,AATCCCCT,inactive: -0.155
24,GCCCAACA,inactive: 0.0223

row,Sequence,PBM E-score
1,CAGTACAG,inactive: 0.195
2,CCGGACTC,inactive: -0.141
3,AGCTGATG,inactive: 0.0305
4,CCGAAGCC,inactive: -0.272
5,CAGTGCGA,inactive: -0.045
6,ACGTCCCC,inactive: -0.13
7,AGTGTGAC,inactive: 0.115
8,GGCGCGGA,inactive: -0.281
9,ATAGTCGG,inactive: -0.0656
10,CAGTAGGG,inactive: -0.081
11,ACAGTAGA,inactive: 0.0979
12,AGGGTACG,inactive: -0.00711
13,ATCCTAGA,inactive: -0.0887
14,AATTGTTC,inactive: 0.211
15,TAGTCTAA,inactive: 0.0123
16,CCGAGCGC,inactive: -0.209
17,ATATCCAA,inactive: 0.0871
18,CCTAAACA,inactive: 0.117
19,GCAAGGCC,inactive: -0.216
20,CGCTAACG,inactive: -0.08
21,TTCTCCAA,inactive: -0.102
22,GAAAGGGC,inactive: -0.133
23,AAGACAAG,≥ 0.267
24,GCAAGTAC,inactive: 0.176

row,Sequence,PBM E-score
1,AATCGATC,inactive: 0.0948
2,AGATGTGG,inactive: 0.0972
3,AGCATGAC,inactive: 0.0874
4,CTGAGTCC,inactive: -0.12
5,CGTGGGTA,inactive: -0.137
6,CTTGTCAC,active: 0.322
7,GTCGCCCA,inactive: -0.175
8,ATATAGGG,inactive: -0.0725
9,CACACTGA,inactive: 0.0556
10,GTACAGAA,inactive: 0.136
11,CTCACGCC,inactive: -0.207
12,AACCCGCC,inactive: -0.108
13,GGGAGACC,inactive: -0.269
14,GTGATGTA,active: ≥ 0.383
15,GGTTAAAA,inactive: 0.0275
16,ACACGTAA,inactive: 0.309
17,TGCCTTAA,inactive: -0.117
18,CTACTACC,inactive: 0.0819
19,CCGAGGGC,inactive: -0.267
20,GATCCTGA,inactive: -0.0397
21,CAGCATCC,inactive: -0.0813
22,GCCGGGAA,inactive: -0.181

# — the supplement of paper PMC3724861
